# Experimental data reported in PubChem BioAssay AID1347155 (National Center for Advancing Translational Sciences (NCATS), 2019).
# Records with an inconclusive call do not appear. Calls follow the shape of the dose curve; as a rule, active = well fitted inhibition curve with a large enough effect; inconclusive = small, poorly fitted or top-dose-only effect; inactive = no such curve, though single readings can be large or run the other way. The source holds several records for some structures; these can differ, active in one and inactive in another. Certain results were filed several times, with different values. They are shown here; other results are not. The source may hold further records. Values given together repeat one measurement in other runs, samples, wells, individuals or studies. Records carry a tag for their origin. A, B and so on number the origins entry by entry.
# Test system: Zika virus NS2B-NS3 protease (linked)
# Assay: Optimization screen NINDS Rhodamine qHTS for Zika virus inhibitors: Linked NS2B-NS3 protease assay
# Text: Avindra Nath, Ph.D., National Institute of Neurological Disorders and Stroke (NINDS), Bethesda, MD
# Radhakrishnan Padmanabhan, Ph.D., Georgetown University (GU), Washington D.C.
# Zika Virus causes congenital defects, including microcephaly and is associated with Guillain-Barre syndrome, eningoencephalitis and myelitis in infected adult. […] Using a target-based approach, we hope to establish a screening paradigm to uncover novel, cell-active NS2B-NS3 protease (Zika Virus) specific inhibitors from NCATS' collection of small molecules using qHTS.
# Four assay panel was created to identify potential Zika Virus inhibitors. […]
# Briefly, 3 microL of enzyme (25 nM final concentration), in assay buffer (10 mM Tris-HCl pH 8.0 with 0.01% Tween 20) were dispensed into a 1,536-well solid-bottom black plate (Greiner Bio One, Monroe, NC). […] Plates were then immediately read on a ViewLux High-throughput CCD imager (PerkinElmer, Waltham, MA) equipped with FITC fluorescence optics (480(20) nm excitation, 540(25) nm emission), then incubated (room temperature, protected from light) for 15 minutes (~15% conversion). The change in fluorescence intensity over the 15-minute reaction period was normalized against no-inhibitor and no-enzyme controls and the resulting percent inhibition data were fitted to a 4-parameter Hill equation. […]
smiles,measurement,value
CC[C@H](C)[C@H]1O[C@]2(CC[C@@H]1C)C[C@@H]1C[C@@H](C/C=C(\C)[C@@H](O[C@H]3C[C@H](OC)[C@@H](O[C@H]4C[C@H](OC)[C@@H](O)[C@H](C)O4)[C@H](C)O3)[C@@H](C)/C=C/C=C3\CO[C@@H]4[C@H](O)C(C)=C[C@@H](C(=O)O1)[C@]34O)O2,Potency,inactive [sample A] and active: 27.8 µM [sample B]
